# Out of some 45,000 compounds screened, about 200 (0.44%) were called active. Not shown: some 7% with an inconclusive outcome. The call rests on the fitted dose curve; in most records, active means well fitted activation curve with a large enough effect; inconclusive means small, poorly fitted or top-dose-only effect; inactive means no such curve, though single readings can be large or run the other way. The list shows a part of the results.
# Assay: qHTS of TDP-43 Inhibitors: NCGC Sytravon Library Screen; further: 0% is about no effect; nearly all actives have a fitted effect of over 55% in size
# Conditions: yeast TDP-43 toxicity rescue, BacTiter-Glo growth, 24 h; series mostly up to 46.1 µM; growth rescue (activation): at the top concentration
# Method in brief: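 TDP-43-expressing yeast, pregrown in raffinose, seeded at OD600 0.02 in galactose medium with compound for 24 hr at 30 deg C. Growth read by BacTiter-Glo luminescence, so rescue of toxicity appears as activation.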
row,SMILES,growth rescue (activation)
1,COc1ccc(CNC(=O)CCC(=O)c2ccc(F)cc2)cc1OC,inactive: 24.9%
2,COc1ccc(NC(=O)c2cccnc2)cc1OCC(C)C,inactive: 7.2%
3,N#CCCN1CCN(C(CNS(=O)(=O)c2ccc(Cl)cc2)c2ccccc2)CC1 (configuration not stated),inactive: 6.79%
4,COc1ccccc1Oc1ccc(S(=O)(=O)N2CCCCC2C)cc1 (configuration not stated),inactive: -13%
5,CCOc1cc(NC(=O)c2ccco2)c(OCC)cc1NC(=O)c1ccco1,inactive: -14.4%
6,CC(=O)c1sc(NC(=O)c2ccc(COc3ccccc3Cl)o2)nc1C,inactive: -20.2%
7,O=C(COC(=O)c1ccc(S(=O)(=O)N2CCc3ccccc3C2)cc1)NC1CCS(=O)(=O)C1 (configuration not stated),inactive: 8.6%
8,COc1cc(C(=O)NC2CCN(CC(=O)Nc3cccc(C)c3C)CC2)cc(OC)c1OC,inactive: 4.46%
9,Cn1cnc2cc(NC(=O)COc3ccccc3)ccc21,inactive: 4.77%
10,COc1cccc(NC(=O)CC2S/C(=N\S(=O)(=O)c3ccccc3)N(c3ccccc3)C2=O)c1 (configuration not stated),inactive: -0.523%
11,NC(=O)c1cc(C(=O)c2cccc(Cl)c2Cl)c[nH]1,inactive: 9.67%
12,COc1ccc(CCNC(=O)C2CCN(C(=O)c3ccccc3C)CC2)cc1,inactive: 5.58%
13,CC(C)CNC(=O)c1oc2ccccc2c1COc1ccccc1,inactive: -1.37%
14,CCCC(=O)N1CCCC1(C)C(=O)Nc1cc(C)ccc1C (configuration not stated),inactive: 9.82%
15,Cn1c(=O)n(C)c2cc(S(=O)(=O)Nc3ccccc3)ccc21,inactive: -2.25%
16,CCOC(=O)N1CCC(N2CCN(S(=O)(=O)c3ccc(OC)cc3)CC2)CC1,inactive: 6.47%
17,COc1ccc(OC)c(CNC(=O)C2CCN(S(C)(=O)=O)CC2)c1,inactive: 17.5%
18,CC(NC(=O)Nc1ccccc1)C(c1ccccc1)N1CCOCC1 (configuration not stated),inactive: 13.2%
19,Cc1ccc(C)c(Cn2c(=O)n(CCC(=O)NCc3ccc4c(c3)OCO4)c(=O)c3sccc32)c1,inactive: 4.44%
20,COc1ccccc1N1CCN(C2CCN(C(=O)COc3cccc(C)c3)CC2)CC1,inactive: -0.204%
21,CCOC(=O)c1c(-c2ccccc2)csc1NC(=O)c1cc(-c2ccccc2OC)on1,inactive: -2.18%
22,CCOC(=O)c1c(-c2ccccc2)oc2ccc(OC(C)C(=O)O)cc12 (configuration not stated),inactive: 2.17%

row,SMILES,growth rescue (activation)
1,CCOC(=O)CNC(=O)c1cc(OC)cc(OC)c1,inactive: -13.3%
2,CCC(=O)N1CCCC(C)(C(=O)NS(=O)(=O)c2cccs2)C1 (configuration not stated),inactive: -1.81%
3,CCCCCCC1CCC(C(=O)N2CCOCC2)CC1 (configuration not stated),inactive: 1.53%
4,Cc1cccn2c(=O)c(/C=N/O)c(Nc3ccccc3F)nc12,inactive: -3.17%
5,C/C(=N\N1CCN(c2ccc(Cl)cc2)CC1)c1cccc([N+](=O)[O-])c1,inactive: -0.715%
6,NS(=O)(=O)c1ccc(CCNC(=O)c2cnc(Cl)c(Cl)c2)cc1,inactive: -2.08%
7,CCOc1ccc(OCCCCN(C)C)cc1,inactive: -4.9%
8,Cc1ccc(C)c(OCC(=O)Nc2ccccc2C(=O)N2CCN(C)CC2)c1,inactive: -12.1%
9,CC(=O)c1cccc(NC(=O)CCNC(=O)c2ccccc2Cl)c1,inactive: -7.57%
10,O=C1NC(=Nc2ccc(Cl)cc2)SC1Cc1cccc(Cl)c1Cl (configuration not stated),inactive: -6.83%
11,Cn1nccc1C(=O)NC1CC(C)(C)Cc2c1cnn2-c1ccc(F)cc1 (configuration not stated),inactive: 19%
12,COc1ccc(/C=C2\CCn3c2nc2cc(C(=O)O)ccc2c3=O)cc1OC,inactive: -3.59%
13,Fc1ccccc1COc1ccc2ccccc2c1CNc1nn[nH]n1,inactive: 16.5%
14,CCOc1nc(-c2ccccc2)ccc1-c1noc(-c2cccnc2)n1,inactive: -22.7%
15,O=C(NCCCn1ccnc1)C1CC(c2ccccc2Cl)=NO1 (configuration not stated),inactive: 22.9%
16,CCn1c(C)nnc1SCC(=O)NC1CCCC1,inactive: -6.38%
17,O=C(OCC(=O)N1CCCCC1)c1cc(NS(=O)(=O)c2ccc(Cl)c([N+](=O)[O-])c2)ccc1O,inactive: 4.13%
18,C(=N\Nc1nc(Nc2ccccc2)nc(Nc2ccccc2)n1)/c1ccncc1,inactive: 2.28%
19,CCN(CC)C(=O)Oc1c(Cl)cc(Cl)c2cccnc12,inactive: 5.89%
20,Cc1cc(-c2nnc(CCC(=O)NCCc3ccccc3F)o2)no1,inactive: -20.9%
21,COc1ccc(-n2c(=S)[nH]c3cc(C(=O)NCc4cccnc4)ccc3c2=O)c(OC)c1,inactive: -0.693%
22,CCc1cc(C(=O)Cc2nc3ccccc3s2)c(O)cc1OCC(=O)O,inactive: 17%

row,SMILES,growth rescue (activation)
1,Cc1c(Nc2nc(-c3cccc([N+](=O)[O-])c3)cs2)c(=O)n(-c2ccccc2)n1C,inactive: 14.9%
2,CCCn1c(=O)c(C(=O)N/N=C/c2ccc(F)cc2)c(O)c2ccccc21,inactive: -19.3%
3,Cn1cc(CN2CCC(C(=O)NC(c3ccc(-c4ccccc4)cc3)c3cnccn3)CC2)c2ccccc21 (configuration not stated),inactive: -6.74%
4,COc1ccc(NC(=S)NC2CC3CCCC(C2)N3C2CC2)cc1 (configuration not stated),inactive: 7.66%
5,COc1ccc(NC(=O)Nc2c(C)n(-c3ccccc3)c(=O)n2C)cc1OC,inactive: 9.15%
6,CC(C)O/N=C1\C(=O)N(c2ccccc2)c2ccccc21,inactive: 31.3%
7,CCCCCOc1ccc(C(=O)Nc2ccc(S(=O)(=O)Nc3cc(C)on3)cc2)cc1,inactive: 1.99%
8,C=CCn1c(SCC(=O)Nc2cc(C)on2)nnc1C1COc2ccccc2O1 (configuration not stated),inactive: -2.01%
9,O=C(CCc1nnc(-c2ccsc2)o1)N1CCCCC1CCn1ccnc1 (configuration not stated),inactive: -4.04%
10,CC(c1ccco1)N(C(=O)c1ccccc1NS(=O)(=O)c1ccc(Cl)cc1)c1ccccn1 (configuration not stated),inactive: 25.1%
11,COc1cc2c(cc1OC)C(c1cccc(F)c1)CC(=O)N2 (configuration not stated),inactive: 0.296%
12,Cc1cc(C)cc(NC(=O)CNS(=O)(=O)c2ccc3nc(C)sc3c2)c1,inactive: 1.19%
13,O=C(NC(N1CCCCCC1)C(Cl)(Cl)Cl)c1ccccc1Cl (configuration not stated),inactive: 2.05%
14,Nc1cccc(-c2cccc3nncn23)c1,inactive: 9.54%
15,O=C(COC(=O)[C@@H]1CC(O)CN1S(=O)(=O)c1ccc2c(c1)OCCO2)NCc1ccc(F)cc1 (some centres not stated),inactive: 8.37%
16,Cc1ccc2cc(NC(=O)C3(C)CCN3C(C)C)ccc2n1 (configuration not stated),inactive: 11.3%
17,Cc1ccccc1C(=O)Nc1ccccc1C(=O)N1CCC(C)CC1,inactive: 14.2%
18,COC1=C/C(=C/c2c(N)n3nc(-c4ccc(C)cc4)sc3nc2=O)C=CC1=O,inactive: -8.15%
19,Cn1c(SCC(=O)N2CCCC2=O)nc2ccccc21,inactive: 5.27%
20,Cc1nn(-c2ccccc2Cl)c(Cl)c1/C=N/Nc1nc2ccccc2s1,inactive: -22.6%
21,CCOc1ccc(S(=O)(=O)N(CC)CC(=O)N2CCOCC2)cc1C,inactive: 16%
22,CC(Nc1nc(-c2ccccc2F)nc2ccccc12)c1ccccc1 (configuration not stated),inactive: -9.18%

row,SMILES,growth rescue (activation)
1,COc1ccc(/C=C(\C#N)C(=O)OCC(=O)NCc2ccccc2)cc1,inactive: 11.5%
2,Cc1ccc(S(=O)(=O)N(CC2CO2)c2ccccc2[N+](=O)[O-])cc1 (configuration not stated),inactive: 4.06%
3,CCOc1ccccc1N(CC(=O)N1CCCCCC1)S(=O)(=O)c1ccc(C)cc1,inactive: 19.9%
4,Cc1nnc(SCCOc2ccccc2)s1,inactive: 3.86%
5,COc1ccc(CN2CCN(CCCCOc3ccc(Cl)cc3)CC2)c(OC)c1OC,inactive: -9.16%
6,COc1ccc(CNS(=O)(=O)NCc2ccc(C)cc2)cc1,inactive: -7.7%
7,O=C(CSc1nncc2ccccc12)Nc1ccccc1,inactive: 3.84%
8,Cc1c(C)n(Cc2ccccc2)c2ccc(C(=O)OCCN(C)C)cc12,inactive: -2.02%
9,COc1cc(/C=N/NC(=O)C(=O)NCc2cccnc2)cc(OC)c1OC,inactive: 8.92%
10,CSc1ccc(CCNC(=O)C(C)n2nc(C)c3sc4ccccc4c3c2=O)cc1 (configuration not stated),inactive: 7.09%
11,COc1ccc(/C=N/NC(=O)CC(=O)N/N=C/c2ccc(OC)cc2)cc1,inactive: -9.85%
12,O=C(Nc1ccc(Cl)c(Cl)c1)Nc1ccc(N2CCCC2)c(S(=O)(=O)Nc2ccccc2Cl)c1,inactive: 15.5%
13,OC(COc1ccc2ccccc2c1Br)Cn1ccnc1 (configuration not stated),inactive: -13.1%
14,O=C1N/C(=N\N=C\c2cccs2)SC1Cc1ccc(Cl)cc1 (configuration not stated),inactive: -22%
15,O=C(COc1ccccc1[N+](=O)[O-])Nc1cc(Cl)ccc1C(=O)O,inactive: 3.02%
16,Cc1ccc(C(=O)OCc2c(C)noc2C)cc1NC(=O)c1ccco1,inactive: 9.08%
17,Nc1c(-c2ccccc2)c(CSc2nc3ccccc3[nH]2)nn1-c1cccc(C(=O)O)c1,inactive: 3.16%
18,Cc1cc(C)c(S(=O)(=O)Nc2ccc(N3CCOCC3)cc2)c(C)c1,inactive: 14.1%
19,CCOc1ccc(S(=O)(=O)N2CCC(C(=O)NCc3ccncc3)CC2)cc1,inactive: 11.2%
20,CN(c1ccc(C(=O)N2CCOCC2)cc1)S(=O)(=O)c1cccs1,inactive: 2.6%
21,O=C(O)c1ccccc1C(=O)NCCc1ccc(Cl)cc1,inactive: 4.7%
22,Cc1ccc(NC(=S)NCc2ccccc2)cc1S(=O)(=O)N1CCCCC1,inactive: 0.881%

row,SMILES,growth rescue (activation)
1,O=C(CSc1n[nH]c(-c2ccco2)n1)Nc1ccc(Br)cc1,inactive: 1.69%
2,O=C(C[n+]1ccc(C(=O)N/N=C/c2ccc(O)cc2)cc1)c1ccccc1,inactive: 14.1%
3,CN1C(=O)/C(=C\c2ccc(N(C)C)cc2)OC1=S,inactive: 1.54%
4,Cc1ccc(S(=O)(=O)NCC(C)n2nc(C)cc2C)cc1 (configuration not stated),inactive: 11.7%
5,Cc1ccc(S(=O)(=O)N2CCOCC2)cc1NC(=O)COC(=O)CNC(=O)c1ccc(Oc2ccccc2)cc1,inactive: 10.6%
6,CCOC(=O)C1(Cc2cccc(OC)c2)CCN(Cc2cccc(OCC)c2O)CC1,inactive: 3.76%
7,CC(=O)c1cccc(NC(=O)Cn2c(=O)oc3cc(S(=O)(=O)N4CCCC4)ccc32)c1,inactive: 10.3%
8,CC(=O)Nc1ccc(NC(=O)CCSCCc2ccccn2)cc1,inactive: 1.21%
9,O=C(O)CSC(C(=O)Nc1ccc(Br)cc1)c1ccccc1 (configuration not stated),inactive: 9.59%
10,COc1cc(C(C(=O)NCC2CCCO2)N(C(=O)Cn2nnc3ccccc32)c2ccc(OC)c(OC)c2)ccc1O (configuration not stated),inactive: 2.27%
11,O=C(CSc1cn[nH]n1)Nc1ccc(Cl)cc1Cl,inactive: 5.19%
12,N#Cc1ccc(COC(=O)c2cnc3ccccc3n2)cc1,inactive: 5.78%
13,CCCSc1nc2sc3c(c2c(=O)[nH]1)CC(C)(CC)OC3 (configuration not stated),inactive: -0.972%
14,CCOc1ccc2nc(COC(=O)c3cccc([N+](=O)[O-])c3)c(C(C)=O)[n+]([O-])c2c1,inactive: 7.57%
15,Cc1nc(/C(N)=N/OC(=O)Cc2ccccc2)no1,inactive: -9.53%
16,CCCn1c(SCC(=O)NC(=O)NC(C)(C)C)n[nH]c1=O,inactive: -8.43%
17,COc1ccc(CCCc2nc3ccccc3[nH]2)cc1,inactive: 2.2%
18,COc1ccc(CNC(=O)CN(C(=O)CCC(=O)Nc2ccccn2)c2cccc(C)c2)cc1,inactive: 4.95%
19,CCN1CCN(C(=O)c2ccc(COc3ccc(Cl)cc3)o2)CC1,inactive: 13.8%

# From PubChem BioAssay AID1347073 (National Center for Advancing Translational Sciences (NCATS), 2019)
